Test results from the supplement of paper PMC3334620.
Over roughly 33,000 sequences, “E-score (-0.5 to 0.5)” has its median near -0.04; the highest 2% begin near 0.36. The list shows a part of the results.

Each sequence was assayed against T1, Hmlalpha2 (UniProt P0CY09) (assay: PBM E-score (8-mer binding enrichment) (E-score (-0.5 to 0.5)); higher = stronger / more preferred TF binding; most listed sequences are background and not binding sites). Details: protein concentration: 200 nM; construct: GST-full length.
T1 sequence: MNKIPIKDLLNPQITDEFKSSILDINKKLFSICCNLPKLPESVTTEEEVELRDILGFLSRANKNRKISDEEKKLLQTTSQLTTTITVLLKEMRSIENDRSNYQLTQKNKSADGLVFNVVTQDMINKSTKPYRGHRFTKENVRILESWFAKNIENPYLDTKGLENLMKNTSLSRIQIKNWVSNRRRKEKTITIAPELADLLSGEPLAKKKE
In short: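 GST-tagged yeast TFs (full-length or DNA-binding domain) were made by PURExpress in vitro transcription/translation and applied at about 100-200 nM to universal all-10-mer Agilent arrays. The arrays were made double-stranded by primer extension, on fresh or once-stripped slides. Bound protein was detected with fluorescent anti-GST, and scans were normalised with masliner. Each ungapped eight-base word, pooled with its reverse complement, received an E-score (modified Wilcoxon-Mann-Whitney statistic) from the Universal PBM Analysis Suite.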

Row | Sequence | PBM E-score
1 | GCCCGCTA | -0.191
2 | CGAATTAC | 0.236
3 | TGATGACA | 0.108
4 | CCCCATTC | -0.266
5 | GAAACTGC | -0.28
6 | TAATCATA | 0.188
7 | CGAGTTCC | 0.0842
8 | ATGCCACA | 0.0402
9 | GGAGGTAC | -0.204
10 | AGGAGCGG | -0.361
11 | AAGGCCAC | -0.186
12 | CCACCAGC | -0.127
13 | GACGCCGA | -0.126
14 | GCCGGGAC | -0.307
15 | ACGATCAG | -0.0473
16 | CTGAGCCA | -0.213
17 | TGAAAGCA | 0.101
18 | AACATCTC | 0.22
19 | GCTCCAAC | -0.042
20 | GTAACCTA | 0.143
21 | AAACTTTG | 0.115
22 | AACGAAAC | 0.0787
23 | GGGCCCTA | -0.325
24 | GGCGTCAC | -0.233
25 | CTTCCACA | -0.031

Row | Sequence | PBM E-score
26 | AGGATTAC | 0.279
27 | ATCGCCAC | -0.102
28 | CCTAAAAC | 0.0405
29 | TACTCATA | -0.0114
30 | ATGTTAAG | 0.445
31 | GAAATCCC | -0.119
32 | ACGAGCTA | 0.108
33 | GGTCTGGA | -0.32
34 | CTTGATAC | 0.169
35 | GAGCACTC | -0.122
36 | GGACACCA | -0.228
37 | CAGGCGCC | -0.0392
38 | AAGCGCAC | -0.0172
39 | GCCATAAC | -0.0921
40 | CAACATCG | 0.176
41 | ACGGGTAT | 0.105
42 | GGCAACTA | 0.0116
43 | GCTTTACA | 0.405
44 | ACATAGGG | 0.251
45 | CGGATCAG | -0.168
46 | GATAAACA | 0.212
47 | AATTCGGA | -0.00295
48 | CTCGTTAA | 0.195
49 | GGCGTCCA | -0.138
50 | CAACGTTG | 0.336

Row | Sequence | PBM E-score
51 | ATCTTTGC | 0.108
52 | ACGTTTAA | 0.323
53 | AGTCAAAC | -0.0636
54 | GCAAACAA | 0.118
55 | CGAGGCTA | -0.00576
56 | CAAGTAAC | 0.216
57 | CAACTAAA | 0.176
58 | AACGAGTT | 0.177
59 | GCCATCAC | -0.133
60 | CCCATTGA | -0.0288
61 | ATGTATGA | 0.296
62 | GCACTCTA | -0.147
63 | AACTAGTA | 0.178
64 | AGAATACT | 0.231
65 | AAGTGTCC | -0.0446
66 | AGCCTTGG | -0.102
67 | CAACCAGA | 0.108
68 | CCCAGAAG | -0.154
69 | GAACATCC | 0.0646
70 | CCCATACC | -0.159
71 | GACGGCGC | -0.218
72 | AACTAGAT | 0.0979
73 | AGCGCAAA | -0.00143
74 | GTGCTAGA | -0.00911
75 | GGAAAAAC | 0.0566

Row | Sequence | PBM E-score
76 | GGCATTCA | -0.211
77 | GCAGTGAC | -0.0529
78 | CTGTACCA | -0.18
79 | AATGCTGC | 0.122
80 | CACGCGTA | 0.277
81 | GACCACGA | -0.0864
82 | ACGAAGCC | -0.155
83 | ATGACGTG | 0.256
84 | TCTATGCA | 0.115
85 | ACACTAAG | 0.145
86 | GCCACGCA | -0.185
87 | AAGTGTGA | 0.0353
88 | CAAGGGGG | -0.175
89 | CCGTACAC | 0.205
90 | ATCTGGAA | -0.119
91 | AGTTACAA | 0.215
92 | AGACCAGG | -0.104
93 | ATAGTAAT | 0.187
94 | CGTCCTAC | -0.206
95 | TCCTTACA | 0.236
96 | CACATTGG | -0.105
97 | CGGCTGAA | -0.0725
98 | ATCAATCA | 0.147
99 | CCGTGTGC | -0.134
100 | TAGGTTGA | 0.0343

Row | Sequence | PBM E-score
101 | ATCTGGAG | -0.0319
102 | CCTTCGGC | -0.267
103 | GCAAGACC | -0.163
104 | CGCAGCCC | -0.186
105 | GGCCGACA | -0.247
106 | GGACAGCC | -0.369
107 | CGGCTTCC | -0.213
108 | AGCGGCCG | -0.00781
109 | GCGCTAGC | -0.035
110 | AACCCTCA | -0.157
111 | ACTGAACT | -0.101
112 | AGGCTGCA | 0.0206
113 | GACCTATA | 0.118
114 | GGCCACCC | -0.351
115 | CCGGCTAG | -0.321
116 | CAGGTTGC | 0.0306
117 | GTGTATTA | 0.421
118 | GGGAGAAA | -0.209
119 | AGTGCACT | -0.142
120 | GCTTGCAC | -0.133
121 | CCTATCAC | -0.138
122 | AAACCGGC | -0.0487
123 | ATTAGGCA | 0.0917
124 | GGCGCCCC | -0.218
125 | CGAGACGA | -0.156

Row | Sequence | PBM E-score
126 | AGGAATAT | -0.169
127 | TGCTGAAA | 0.0411
128 | AGCGCATC | -0.126
129 | CATCGCGG | -0.225
130 | ATGCCATG | 0.138
131 | TACAGGTA | 0.135
132 | ACGCTCCT | 0.0508
133 | CTGTCTCC | -0.275
134 | AAATCACT | 0.00442
135 | CAGGGCGG | -0.209
136 | AACAACGA | 0.157
137 | AGGTCACA | -0.088
138 | GCGGTCAC | -0.314
139 | AATGACAA | 0.209
140 | TAGGCGAA | -0.17
141 | AGGACCTA | -0.237
142 | CGCAGGCG | -0.137
143 | ACGAGACC | -0.0278
144 | CCTCGTAA | 0.317
145 | CCATGTTA | 0.458
146 | AGCGATAG | -0.277
147 | AACTTCTA | 0.0783
148 | ACAGAGAG | -0.0914
149 | AGCGTCGG | -0.0159
150 | TAATACCA | 0.155

Row | Sequence | PBM E-score
151 | CCAGTTTA | 0.147
152 | AAGAGGGA | -0.246
153 | ATAGCAAC | -0.0001
154 | TCGCCGCA | -0.165
155 | CGACGCAA | -0.163
156 | AGGTGTGA | -0.154
157 | AGAGACGG | -0.124
158 | AGTCTGTC | -0.0433
159 | ACTAGTGG | -0.198
160 | TACTTATA | 0.0699
161 | AAAGATCT | 0.00927
162 | TAATTTGA | -0.0623
163 | CATGTCGA | 0.386
164 | AAACCTTT | -0.111
165 | CGCATCAC | -0.0429
166 | ATACGTTG | 0.157
167 | TCCGGCCA | -0.407
168 | ATCTCGCC | -0.262
169 | TATAGCCA | 0.0852
170 | CGGCAGTC | -0.161
171 | CGGCGGCA | -0.295
172 | CCAGTTCC | -0.263
